# From PMC4336329 (PLoS ONE, 2015)
# The whole screen tested about 310,000 compounds, of which about 2,200 (0.71%) showed an effect of 50% or more. The effect is printed as a negative number. Some of the results follow.
# Biological target: human ether-à-go-go-related gene (hERG) potassium channel (human, UniProt Q12809)
# Assay: primary screen, population patch clamp on CHO cells stably expressing hERG
# Chain of human ether-à-go-go-related gene (hERG) potassium channel (Q12809 whole entry, looked up): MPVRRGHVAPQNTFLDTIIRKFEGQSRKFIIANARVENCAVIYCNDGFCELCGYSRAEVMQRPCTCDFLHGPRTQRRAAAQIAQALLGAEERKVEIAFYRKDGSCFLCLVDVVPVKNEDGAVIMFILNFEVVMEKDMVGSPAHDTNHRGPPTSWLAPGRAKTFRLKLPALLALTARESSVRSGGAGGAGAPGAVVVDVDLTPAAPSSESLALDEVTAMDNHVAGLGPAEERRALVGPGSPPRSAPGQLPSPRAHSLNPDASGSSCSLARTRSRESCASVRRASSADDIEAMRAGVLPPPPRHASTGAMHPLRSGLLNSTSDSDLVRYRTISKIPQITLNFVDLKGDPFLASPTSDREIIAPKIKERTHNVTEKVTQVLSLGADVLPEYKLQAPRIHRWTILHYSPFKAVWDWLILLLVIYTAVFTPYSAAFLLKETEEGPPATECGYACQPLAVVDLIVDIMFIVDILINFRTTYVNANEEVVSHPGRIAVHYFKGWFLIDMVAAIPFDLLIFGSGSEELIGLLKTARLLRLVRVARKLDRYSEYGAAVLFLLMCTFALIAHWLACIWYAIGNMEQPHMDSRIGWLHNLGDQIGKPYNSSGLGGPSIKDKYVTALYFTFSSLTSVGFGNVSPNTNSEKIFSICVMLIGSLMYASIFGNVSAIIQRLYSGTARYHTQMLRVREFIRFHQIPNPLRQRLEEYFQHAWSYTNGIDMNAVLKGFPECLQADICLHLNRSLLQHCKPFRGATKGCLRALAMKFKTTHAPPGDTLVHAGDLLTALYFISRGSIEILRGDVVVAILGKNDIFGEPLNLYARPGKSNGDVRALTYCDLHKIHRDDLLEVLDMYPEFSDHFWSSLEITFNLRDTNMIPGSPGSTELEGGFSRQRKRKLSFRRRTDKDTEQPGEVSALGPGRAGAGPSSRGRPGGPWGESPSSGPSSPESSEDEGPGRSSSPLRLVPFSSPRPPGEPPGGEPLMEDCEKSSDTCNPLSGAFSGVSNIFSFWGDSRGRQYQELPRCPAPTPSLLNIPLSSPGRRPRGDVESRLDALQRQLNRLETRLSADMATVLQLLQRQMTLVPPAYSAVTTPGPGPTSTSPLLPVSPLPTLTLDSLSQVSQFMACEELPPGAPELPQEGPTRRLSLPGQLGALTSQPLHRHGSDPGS
row,SMILES,"hERG current change (%, negative = inhibition) at 1uM"
1,Cc1[nH]c2ccccc2c(=O)c1CN1CCCCC1,5.08%
2,CCn1cc(C(=O)NCCc2ccccc2)c(=O)c2cc(F)c(N3CCN(C)CC3)cc21,3.58%
3,CC(Oc1ccc(F)cc1)C(=O)Nc1cc(S(=O)(=O)N2CCOCC2)ccc1N1CCCC1 (stereo not shown),14.5%
4,COc1cc(OC)cc(C(=O)Nc2ccc(Br)cc2C(=O)c2ccccc2)c1,14.7%
5,CC(C)c1cc(-c2cc(-c3ccccc3)on2)nc(NC2CCCC2)n1,13.2%
6,CC(C)CN1C2CCCC1CC(NC(=O)c1ccc([N+](=O)[O-])cc1)C2 (stereo not shown),-70.1%
7,Cc1ccc2[nH]c(=O)c(CN(C(=O)c3cccc([N+](=O)[O-])c3)C(C)(C)C)cc2c1,14.4%
8,Cc1ccc(OCCCC(=O)Nc2ccc(Br)cc2)cc1,11.5%
9,CCCCCN(C(=O)CCC(=O)OCc1ccc(C(C)(C)C)cc1)c1c(N)n(CCCC)c(=O)[nH]c1=O,11.2%
10,CCOC(=O)/C=C/C(=O)OCC(=O)NCc1ccccc1,16.1%
11,Cc1cccc(NC(=O)CN(C)C(=O)C2CC2)c1C,14.4%
12,COCCN1CCN(C(=O)c2cc(COc3ccc(F)c(F)c3)on2)CC1,9.42%
13,Cc1cc(C)c(S(C)(=O)=O)c(=O)[nH]1,22.6%
14,Cc1nc(Nc2ccccc2F)c2oc3ccccc3c2n1,-17.6%
15,Cc1cc(C)n2nc(SCC(=O)NC(=O)c3ccccc3Cl)nc2n1,4.49%
16,Cc1cc(OCC(=O)N2CCC(C(=O)O)CC2)c2c(C)c(C)c(=O)oc2c1,14.4%
17,O=C(COc1ccc(F)cc1F)NNC(=O)Nc1cccc([N+](=O)[O-])c1,5.48%
18,Cc1nc(-c2ccc(C(=O)Nc3ccccc3F)cc2)cs1,9.9%
19,CCOc1ccc(C(=O)OCC(=O)N(Cc2ccccc2)Cc2ccccc2)cc1OC,-2.76%
20,C#Cc1ccc([C@@H]2C=C(C(=O)O)O[C@H](OCc3ccc(CO)cc3)C2)cc1,13.6%
21,CCCN(CC(=O)Nc1ccc(C(N)=O)cc1)CC(=O)Nc1ccc(F)c(F)c1F,9.34%
22,COC(=O)C(O)(c1ccc(NC(=S)NC(=O)c2ccc(Cl)cc2Cl)c(C)c1)C(F)(F)F (stereo not shown),17.6%

row,SMILES,"hERG current change (%, negative = inhibition) at 1uM"
1,O=C(COC(=O)c1ccc2c(c1)OCCO2)Nc1cccc(S(=O)(=O)N2CCOCC2)c1,-1.35%
2,COCCCN1C(=O)CC(C(=O)OC)=C1C,12.9%
3,O=C(NNC(=O)c1ccc(Br)o1)c1csc(N2CCOCC2)n1,4.89%
4,CCC(C(=O)NC1CCCC1)N(C(=O)c1snc(C(N)=O)c1N)c1ccc(C)cc1C (stereo not shown),12%
5,Cc1ccc(CN(Cc2cc3cccc(C)c3[nH]c2=O)C(=S)NCCCN(C)C)cc1,-12.3%
6,CCNc1nc(NCC)nc(SCCOC(=O)c2ccccc2)n1,2.83%
7,Nc1nonc1C(=O)NCCNc1ccc([N+](=O)[O-])cn1,0.313%
8,CN(C)C(CNC(=O)Nc1cccc(Cl)c1)c1cccnc1 (stereo not shown),4.19%
9,COc1ccccc1C(=O)NNC(=O)c1ccc(NC(=O)CC(C)C)cc1,11.8%
10,COC(=O)C1=Nc2ccccc2/C1=C\c1c(O)n(-c2cc(OC)ccc2OC)c(=O)[nH]c1=O,19.1%
11,CCn1ncc(C(=O)Nc2ccc(F)cc2)c1C,14%
12,CCc1ccccc1NC(=S)N1CCC(C(=O)c2ccc(F)cc2)CC1,-9.53%
13,O=C(CCN1C(=O)C2C3C=CC(C3)C2C1=O)NCCc1ccccc1 (stereo not shown),9.54%
14,Cc1ccc(C)c(C(=O)NCc2ccncc2)c1,-1.89%
15,O=C(COC(=O)c1ccc(O)cc1O)Nc1ccc2c(c1)OCCO2,6.26%
16,CCCOc1cc(C)c(S(=O)(=O)NC2CC(C)(C)NC(C)(C)C2)cc1C,4.81%
17,CCOC(=O)c1c(NC(=O)CSc2nnnn2CC)sc(C)c1C,10.2%
18,CCN(CC(=O)Nc1ccccc1Br)C1CCCCC1,-0.704%
19,COc1ccccc1NC(=O)Nc1ccccc1C#N,15.2%
20,COc1ccc(NC(=O)CC(C)CC(=O)NCc2ccc(F)cc2)c(OC)c1 (stereo not shown),9.13%
21,CCCN1CCC(Oc2cccc(C(=O)NCCc3ccccc3)c2)CC1,-11.5%
22,Cc1nc2ccccc2c(=O)n1NC(=O)c1ccccc1,3.94%

row,SMILES,"hERG current change (%, negative = inhibition) at 1uM"
1,O=C(NNC(=O)c1cccs1)c1ccc(Cl)cc1,9.36%
2,Clc1ccc(Cn2ncc3c(NCc4cccnc4)ncnc32)cc1,-10.2%
3,CS(=O)(=O)c1ccc2nc(NC(=O)CCNC(=O)c3ccccc3Cl)sc2c1,10.4%
4,CCOc1ccc(NC(=O)Cn2nnc(C(=O)NCc3ccccc3OC)c2N)cc1,11%
5,O=C1C[C@@H](c2ccccc2)Oc2cc(O)cc(O)c21,0.714%
6,NS(=O)(=O)c1ccc(NC(=O)C2CCCN(S(=O)(=O)c3ccc(F)cc3)C2)cc1 (stereo not shown),14.7%
7,Cc1ccc2[nH]c(=O)c(CN(Cc3ccco3)C(=O)c3ccncc3)cc2c1,-0.51%
8,CCOCCCNC(=O)C1CCN(S(=O)(=O)N2CCCC2)CC1,-0.37%
9,Cc1nc2sc(-c3ccccc3)cc2c(=O)n1N,11.2%
10,Cc1[nH]c2ccccc2c1C(=O)COc1ccccc1F,7.33%
11,Cc1ccc(C(=O)Nc2nccs2)s1,7.67%
12,Cc1ccc(S(=O)(=O)c2nc(S(C)(=O)=O)sc2N2CCN(C)CC2)cc1,14.2%
13,CN(C(=S)Nc1ccc(F)cc1)C1(c2ccccc2Cl)CCCCC1=O (stereo not shown),4.47%
14,CCNC(=O)COC(=O)/C=C/c1cccc([N+](=O)[O-])c1,12.3%
15,COc1ccc2nc(SCC(=O)Nc3ccc(S(=O)(=O)Nc4onc(C)c4C)cc3)[nH]c2c1,-0.668%
16,O=C1/C(=C/c2cccs2)N=C(c2cccs2)N1Nc1ccccc1,-9.77%
17,Cc1ccc(/C=C/S(=O)(=O)N2CCC(C(=O)O)CC2)cc1,24.8%
18,CCN1CCN(c2c(Cl)cccc2NC(=O)c2ccco2)CC1,-70.7%
19,COCCn1c(=S)[nH]c2cc(C(=O)N3CCN(c4ccc(F)cc4)CC3)ccc2c1=O,-11.6%
20,CCn1cnc2scc(-c3ccc(OC)cc3)c2c1=O,8.17%
21,Cl.c1ccc(-c2cc(-c3ccc(N4CCOCC4)cc3)nc3ccccc23)cc1,5.29%
22,CC1=NN(c2ccccc2)C(=O)C1C=Nc1ccccc1O (stereo not shown),9.8%

row,SMILES,"hERG current change (%, negative = inhibition) at 1uM"
1,O=C(NCC1CCCO1)C12CN(Cc3ccccc3)CC1C(c1cccc([N+](=O)[O-])c1)=NO2 (stereo not shown),1.43%
2,O=C(NNC(=O)c1ccncc1)NC1CCCCC1,23.3%
3,CCSc1ccccc1C(=O)Nc1ccc(S(=O)(=O)NC(C)=O)cc1,14.8%
4,Cc1ccc2c(c1)COc1c3ccc(C(=O)NCCO)cc3nn1-2,5.85%
5,CCn1c(SCC(=O)Nc2ccc(C(C)=O)cc2)nc2nc3c(cc2c1=O)CCCC3,-1.29%
6,O=C1[C@H](CC[C@H](O)c2ccc(F)cc2)[C@@H](c2ccc(O)cc2)N1c1ccc(F)cc1,9.18%
7,CCCc1cc(=O)[nH]c(SCC(=O)N(CC)c2c(N)n(Cc3ccccc3)c(=O)[nH]c2=O)n1,14%
8,CC(=O)NS(=O)(=O)c1ccc(N=NN2CCOCC2)cc1,3.59%
9,Cc1cccc(CCNS(=O)(=O)c2ccc(S(=O)(=O)N3CCCCC3)cc2)c1,2.57%
10,C=C(C)C(=O)Nc1cccc(C2=NOC3(C2)C[C@@H](C(N)=O)N(C(=O)CCCCC)C3)c1 (stereo partly shown),-0.596%
11,C/C(=N/Nc1ccc(C(=O)O)cc1)c1ccc(O)c(O)c1O,14.2%
12,CCn1cc(CNC(=O)CCSc2nc(-c3ccco3)cc(C(F)(F)F)n2)cn1,4.78%
13,COc1cccc(C(=O)NOCc2ccccc2)c1OC,10.2%
14,Cc1ccc(S(=O)(=O)Oc2ccc(/C=N/NC(=O)c3ccncc3)cc2)cc1,3.02%
15,Cc1cccc(NS(=O)(=O)c2ccc(Br)s2)n1,9.58%
16,Cc1sc2nc[nH]c(=S)c2c1-c1ccccc1,11.3%
17,O=C(NNC(=O)C1C2C=CC(C2)C1C(=O)O)c1ccccc1 (stereo not shown),18.4%
18,O=C(NC1CCCC1)c1cc2c(ccc3ccccc32)o1,5.48%
19,COc1ccc(CC(=O)NNC(=O)Cc2ccc(OC)cc2)cc1,18.4%
20,Cc1ccccc1C(=O)NCC(=O)OCCCOC(=O)CNC(=O)c1ccccc1C,16.1%
21,COCCN(C(=O)COC(=O)c1cccc2ccccc12)c1c(N)n(Cc2ccccc2)c(=O)[nH]c1=O,0.926%
22,CCCCOc1ccc(/C(O)=C2/C(=O)C(=O)N(CCCOC)C2c2ccncc2)cc1C (stereo not shown),5.21%
